Test results as given in ChEMBL document CHEMBL4346670, “Discovery of Novel Janus Kinase (JAK) and Histone Deacetylase (HDAC) Dual Inhibitors for the Treatment of Hematological Malignancies” (J Med Chem, 2019).

Key:
[1] = Half life in CD1(ICR) mouse at 1 mg/kg, ip by LC-MS/MS analysis; type: ADME, organism-based; conditions: in vivo
In short: (§1)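 Male ICR (CD-1) mice dosed IP or IV, vehicle 10% DMSO, 40% PEG400, 50% water. Blood taken from the jugular vein at set time points and held on ice. Plasma separated by centrifugation, stored at -80 °C, and analysed by LC-MS/MS.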

[2] = target: Mitogen-activated protein kinase 3 (Homo sapiens) (UniProt P27361); assay: Inhibition of recombinant human ERK1 at 200 nM using Ulight-CFFKNIVTPRTPPPSQGK-amide as substrate measured after 30 mins by LANCE method relative to control
In short: (§2)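 Single-concentration screen within an 85-kinase panel run by a contract lab, with each compound tested at 20 nM and 200 nM. Human recombinant enzymes were used. Activity was quantified as phosphorylation of a peptide substrate read by LANCE time-resolved detection, and inhibition was expressed relative to control, using the same format as the JAK assay.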

[3] = target: Tyrosine-protein kinase Lck (Homo sapiens) (UniProt P06239); assay: Inhibition of recombinant human LCK at 200 nM using Ulight-Poly GAT[EAY(1:1:1)] as substrate measured after 10 mins by LANCE method relative to control
In short: (§3)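 Part of an 85-kinase selectivity panel run by a contract lab, with the test compound at 20 nM and at 200 nM. Each human recombinant kinase's phosphorylation of its peptide substrate was measured following the JAK assay method. Activity is given as percent inhibition.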

[4] = Drug level in plasma of BALB/c nu mouse xenografted with HEL cells at 100 mg/kg/day, ip administered for 5 days and measured after 0.5 to 4 hrs by LC-MS/MS analysis; type: ADME, organism-based; conditions: in vivo
In short: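 HEL-xenografted male BALB/c-nu mice dosed IP at 100 mg/kg/day for 5 days. Sacrificed 0.5, 1.0 and 4.0 h after the last dose. Plasma separated and stored at -80 °C. Tumors homogenized in normal saline (5:1 v/w) and sonicated. Samples deproteinized with methanol containing internal standard, centrifuged, diluted in methanol/acetonitrile and recentrifuged.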

HEL [5] = assay: Induction of apoptosis in HEL cells assessed as viable cells at 0.5 uM after 24 hrs by Annexin-V/propidium iodide staining-based flow cytometric analysis (reference value: 87.5%); type: functional; conditions: Homo sapiens, read-out: Activity
[6] = target: Tyrosine-protein kinase TXK (Homo sapiens) (UniProt P42681); assay: Inhibition of recombinant human TXK at 20 nM using Ulight-Poly GAT[EAY(1:1:1)] as substrate measured after 30 mins by LANCE method relative to control
[7] = target: Serine/threonine-protein kinase ULK1 (Homo sapiens) (UniProt O75385); assay: Inhibition of recombinant human ULK1 at 20 nM using Ulight-FLGFTYVAP as substrate measured after 60 mins by LANCE method relative to control
[8] = target: Tyrosine-protein kinase ABL1 (Homo sapiens) (UniProt P00519); assay: Inhibition of recombinant human ABL1 at 20 nM using Ulight-TK peptide as substrate measured after 30 mins by LANCE assay relative to control
In short: (§4)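 Human recombinant kinases tested at 20 nM and 200 nM compound in an outsourced panel of 85 kinases. Activity measured as phosphorylation of a ULight-labelled substrate by LANCE detection, expressed as inhibition relative to control.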

[9] = Apparent volume of distribution in CD1(ICR) mouse at 1 mg/kg, iv by LC-MS/MS analysis; type: ADME, organism-based; conditions: in vivo, read-out: Vz; in short: as §1
[10] = target: Serine/threonine-protein kinase BRSK1 (Homo sapiens) (UniProt Q8TDC3); assay: Inhibition of recombinant human BRSK1 at 200 nM using CREBtide as substrate measured after 90 mins by LANCE assay relative to control; in short: as §2
[11] = target: Mitogen-activated protein kinase kinase kinase 9 (Homo sapiens) (UniProt P80192); assay: Inhibition of recombinant human MLK1 at 20 nM using Ulight-FLGFTYVAP as substrate measured after 60 mins by LANCE method relative to control; in short: as §3
[12] = target: Epidermal growth factor receptor (Homo sapiens) (UniProt P00533); assay: Inhibition of recombinant human EGFR at 20 nM using Ulight-CAGAGAIETDKEYYTVKD as substrate measured after 15 mins by LANCE method relative to control; in short: as §2
[13] = target: RAC-alpha serine/threonine-protein kinase (Homo sapiens) (UniProt P31749); assay: Inhibition of recombinant human AKT1 at 200 nM using CREBtide as substrate measured after 60 mins by LANCE assay relative to control; in short: as §4
[14] = target: Serine/threonine-protein kinase pim-2 (Homo sapiens) (UniProt Q9P1W9); assay: Inhibition of recombinant human PIM2 at 20 nM using CREBtide as substrate measured after 60 mins by LANCE method relative to control
[15] = target: Tyrosine-protein kinase ABL1 (Homo sapiens) (UniProt P00519); assay: Inhibition of recombinant human ABL1 at 200 nM using Ulight-TK peptide as substrate measured after 30 mins by LANCE assay relative to control; in short: as §4
[16] = target: Dual specificity protein kinase CLK1 (Homo sapiens) (UniProt P49759); assay: Inhibition of recombinant human CLK1 at 20 nM using Ulight-CFFKNIVTPRTPPPSQGK-amide as substrate measured after 30 mins by LANCE assay relative to control; in short: as §2
[17] = target: Mitogen-activated protein kinase 14 (Homo sapiens) (UniProt Q16539); assay: Inhibition of recombinant human P38alpha at 20 nM using Ulight-CFFKNIVTPRTPPPSQGK-amide as substrate measured after 30 mins by LANCE assay relative to control; in short: as §3
[18] = target: Tyrosine-protein kinase TXK (Homo sapiens) (UniProt P42681); assay: Inhibition of recombinant human TXK at 200 nM using Ulight-Poly GAT[EAY(1:1:1)] as substrate measured after 30 mins by LANCE method relative to control
[19] = Half life in CD1(ICR) mouse at 1 mg/kg, iv by LC-MS/MS analysis; type: ADME, organism-based; conditions: in vivo; in short: as §1
[20] = target: Mitogen-activated protein kinase kinase kinase kinase 2 (Homo sapiens) (UniProt Q12851); assay: Inhibition of recombinant human GCK at 200 nM using Ulight-FLGFTYVAP as substrate measured after 60 mins by LANCE method relative to control; in short: as §2
HEL [21] = assay: Induction of apoptosis in HEL cells assessed as early apoptotic cells at 0.5 uM after 24 hrs by Annexin-V/propidium iodide staining-based flow cytometric analysis (reference value: 12.5%); type: functional, Homo sapiens
[22] = target: Protein-tyrosine kinase 6 (Homo sapiens) (UniProt Q13882); assay: Inhibition of recombinant human BRK at 20 nM using Ulight-TK peptide as substrate measured after 90 mins by LANCE assay relative to control; in short: as §2
Homo sapiens = species on record: Homo sapiens; assay: Inhibition of recombinant human AMPKalpha at 20 nM using ULight-CREB as substrate measured after 30 mins by LANCE assay relative to control
In short: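 Part of an 85-kinase selectivity panel run by a contract lab. The test compound was screened at 20 nM and 200 nM against human recombinant kinases. Activity was quantified as phosphorylation of a ULight-labelled peptide substrate, read by LANCE detection. Percent inhibition was taken relative to control. The method is the same one used for JAKs.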

[23] = target: Tyrosine-protein kinase ABL2 (Homo sapiens) (UniProt P42684); assay: Inhibition of recombinant human ARG at 20 nM using Ulight-TK peptide as substrate measured after 60 mins by LANCE assay relative to control; in short: as §4

O=C(CCCCCn1cc(Nc2ncc(Cl)c(Nc3ccc(Cl)cc3)n2)cn1)NO
half-life [1]: 15.6 min | inhibition [2]: 0% | inhibition [3]: 1% | concentration [4]: 100 nM | viability at 0.5 µM (HEL [5]): 4.27% | inhibition [6]: 6% | inhibition [7]: 3% | inhibition [8]: 3% | Vd [9]: 18.4 L/kg | inhibition [10]: 19% | inhibition [11]: 30% | inhibition [12]: -5% | inhibition [13]: 40% | inhibition [14]: -5% | inhibition [15]: 26% | inhibition [16]: 14% | inhibition [17]: 7% | inhibition [18]: 26% | half-life [19]: 19.2 min | inhibition [20]: 26% | Activity (HEL [21]): 24.2% | inhibition [22]: 19% | inhibition (Homo sapiens): 6% | inhibition [23]: -3%
